{"source": "patent US20250248397A1", "about": "“CHITOSAN ENCAPSULATION OF ABSOLUTE (ESSENTIAL) ROSEMARY, PEPPERMINT, AND COTTONSEED OILS” (GroPro Corporation, priority 2024, published 2025)", "tested_on": "tomato seedlings", "experiment": "Phytotoxicity of geraniol, drenching treatment of potted tomato seedlings", "format": "in vivo", "details": "Tomato, 50 ml drench, 1 week", "text": "Sterilized soil was uniformly mixed, 300 g thereof was then placed in each pot, and tomato seedlings not infected with root-knot nematodes were transplanted thereto."}
{"molecule": "CC(C)=CCC/C(C)=C/CO", "note": "[Geraniol, 3,7-dimethyl-2,6-octadien-1-ol]", "values": [{"measurement": "Extent of phytotoxicity (0-5)", "setting": "Geraniol 100 ppm", "value": 0}, {"measurement": "Phytotoxicity symptom", "setting": "Geraniol 100 ppm", "value": "No"}, {"measurement": "Extent of phytotoxicity (0-5)", "setting": "Geraniol 200 ppm", "value": 0}, {"measurement": "Phytotoxicity symptom", "setting": "Geraniol 200 ppm", "value": "No"}, {"measurement": "Extent of phytotoxicity (0-5)", "setting": "Geraniol 330 ppm", "value": 0}, {"measurement": "Phytotoxicity symptom", "setting": "Geraniol 330 ppm", "value": "No"}, {"measurement": "Extent of phytotoxicity (0-5)", "setting": "Geraniol 500 ppm", "value": 0}, {"measurement": "Phytotoxicity symptom", "setting": "Geraniol 500 ppm", "value": "No"}, {"measurement": "Phytotoxicity symptom", "setting": "Geraniol 2,000 ppm", "value": "No"}, {"measurement": "Extent of phytotoxicity (0-5)", "setting": "Geraniol 3,000 ppm", "value": 0}, {"measurement": "Phytotoxicity symptom", "setting": "Geraniol 3,000 ppm", "value": "No"}, {"measurement": "Extent of phytotoxicity (0-5)", "setting": "Geraniol 4,000 ppm", "value": 5}, {"measurement": "Phytotoxicity symptom", "setting": "Geraniol 4,000 ppm", "value": "Withered"}, {"measurement": "Extent of phytotoxicity (0-5)", "setting": "Geraniol 5,000 ppm", "value": 5}, {"measurement": "Phytotoxicity symptom", "setting": "Geraniol 5,000 ppm", "value": "Withered"}, {"measurement": "Extent of phytotoxicity (0-5)", "setting": "Geraniol 10,000 ppm", "value": 5}, {"measurement": "Phytotoxicity symptom", "setting": "Geraniol 10,000 ppm", "value": "Withered"}, {"measurement": "Extent of phytotoxicity (0-5)", "setting": "Geraniol 20,000 ppm", "value": 5}, {"measurement": "Phytotoxicity symptom", "setting": "Geraniol 20,000 ppm", "value": "Withered"}]}
